Laboratory results taken from the supplement of paper PMC12217912.
Some of the results follow. Sequences were assembled here from the parent chain. Inactive controls read about 0.05.

B1: TEV protease; numbered along this chain (parent)
chain: MGESLFKGPRDYNPISSSICHLTNESDGHTTSLYGIGFGPFIITNKHLFRRNNGTLVVQSLHGVFKVKDTTTLQQHLVDGRDMIIIRMPKDFPPFPQKLKFREPQREERICLVTTNFQTKSMSSMVSDTSCTFPSGDGIFWKHWIQTKDGQCGSPLVSTRDGFIVGIHSASNFTNTNNYFTSVPKNFMELLTNQEAQQWVSGWRLNADSVLWGGHKVFMVKPEEPFQPVKEATQL

Variants of: B1
Assay: raw area under fraction-flipped curve 0-4 h after induction (AUC4h, not background-subtracted), DNA-recorder readout of cleavage of the substrate (dimensionless); higher = more cleavage of the substrate by the protease variant
Settings: temperature: 34 °C; time window: 0-4 h after rhamnose induction
Protocol: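 In vivo DNA recorder in E. coli TOP10(DE3) ΔrhaA at 34 °C. Each TEVp single-site mutant (parent TEVp 0) is paired with a single-site variant of the 7-mer TEVs (canonical ENLYFQ|S). The substrate sits between flexible linkers in a Bxb1-sfGFP-TEVs-SsrA fusion, so cleavage stabilises Bxb1 and speeds flipping of a recombination array, read by NGS. The value is the raw area under the fraction-flipped curve over 0-4 h after rhamnose induction (AUC4h), with ≥20 reads per time point. It is not background-subtracted; inactive controls average about 0.047.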
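Further: Bxb1 expression induced with 0.2% (w/v) L-rhamnose at OD600 near 0.5, cultures sampled hourly, flipped fraction per protease–substrate barcode pair counted by paired-end Illumina sequencing.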

| Variant | area with substrate EALYFQS | area with substrate ECLYFQS | area with substrate EGLYFQS | area with substrate EILYFQS | area with substrate ELLYFQS | area with substrate EQLYFQS | area with substrate ERLYFQS | area with substrate ESLYFQS | area with substrate EVLYFQS | area with substrate EWLYFQS | area with substrate EYLYFQS | area with substrate EELYFQS | area with substrate EFLYFQS | area with substrate EKLYFQS | area with substrate EMLYFQS | area with substrate EPLYFQS | area with substrate EHLYFQS | area with substrate EDLYFQS | area with substrate ETLYFQS |
| --- | --- | --- | --- | --- | --- | --- | --- | --- | --- | --- | --- | --- | --- | --- | --- | --- | --- | --- | --- |
| T132C | 0.142 | 0.0876 | 0.0885 | 0.094 | 0.107 | 0.13 | 0.0885 | 0.111 | 0.104 | 0.108 | 0.11 | – | – | – | – | – | – | – | – |
| T132E | 0.0591 | – | – | 0.0537 | 0.0539 | 0.0686 | 0.0616 | 0.0594 | 0.0613 | – | 0.065 | 0.0592 | 0.0602 | 0.0647 | 0.0601 | 0.0528 | – | – | – |
| F133L | 0.111 | 0.104 | 0.0987 | – | 0.104 | – | 0.106 | – | 0.101 | 0.146 | – | – | – | 0.141 | – | 0.11 | 0.143 | – | – |
| F133M | 0.0735 | – | 0.0849 | 0.107 | 0.107 | 0.0723 | 0.092 | 0.116 | 0.0936 | – | – | 0.12 | 0.0908 | 0.105 | 0.118 | – | 0.105 | 0.145 | – |
| F133P | 0.0771 | – | 0.0619 | 0.0448 | – | 0.0705 | 0.0749 | 0.0701 | 0.0564 | 0.0792 | – | 0.066 | – | 0.0562 | 0.0712 | 0.0684 | 0.0617 | 0.132 | 0.0578 |
| P134Q | 0.113 | 0.13 | 0.0937 | 0.0959 | 0.0899 | 0.105 | 0.121 | – | – | – | 0.104 | – | – | 0.104 | – | 0.095 | – | – | – |
| P134W | 0.0728 | – | – | 0.0684 | – | 0.0751 | – | 0.0738 | – | 0.0628 | 0.0694 | – | – | 0.0594 | – | 0.0351 | – | 0.0759 | 0.0798 |
| S135F | 0.0583 | – | 0.0637 | 0.0685 | 0.0741 | 0.0613 | 0.0685 | 0.0614 | 0.0563 | 0.0522 | 0.0572 | – | 0.0569 | – | 0.0821 | – | 0.0742 | 0.0621 | 0.062 |
| S135K | 0.0825 | 0.0583 | – | 0.0553 | 0.0495 | 0.068 | 0.0593 | 0.072 | 0.0599 | – | – | – | – | – | – | – | 0.0591 | 0.043 | – |
| S135N | 0.0763 | – | – | 0.0487 | 0.0769 | 0.0802 | 0.0669 | 0.0824 | 0.0814 | 0.0871 | – | 0.134 | – | 0.0798 | 0.0857 | 0.122 | 0.0712 | 0.0897 | 0.0346 |
| G136C | 0.16 | 0.108 | 0.101 | 0.113 | – | 0.148 | 0.09 | 0.109 | 0.0952 | – | 0.106 | 0.127 | – | 0.109 | – | 0.107 | 0.0995 | – | 0.115 |
| G136D | 0.108 | 0.0956 | – | 0.0969 | 0.0812 | 0.127 | – | 0.0887 | 0.087 | – | 0.0814 | 0.111 | 0.0919 | 0.0877 | 0.131 | 0.0921 | 0.126 | – | – |
| D137F | 0.0422 | 0.0946 | – | 0.066 | 0.0877 | 0.13 | 0.0539 | 0.108 | 0.0669 | – | – | – | – | – | 0.102 | – | – | – | 0.0744 |
| D137V | 0.117 | 0.1 | 0.1 | – | – | – | – | 0.118 | 0.0898 | – | – | 0.116 | – | 0.0965 | 0.092 | 0.0941 | – | – | 0.126 |
| I139V | 0.207 | 0.133 | – | 0.104 | 0.0912 | 0.157 | 0.12 | 0.103 | 0.0949 | 0.0922 | 0.109 | 0.165 | – | 0.107 | 0.144 | – | 0.133 | – | 0.136 |
| F140L | 0.083 | 0.082 | – | 0.0719 | 0.0697 | 0.0906 | 0.0637 | 0.0785 | 0.0745 | 0.0863 | – | 0.0818 | 0.0818 | 0.0789 | – | 0.0779 | 0.104 | – | – |
| F140V | 0.0696 | 0.0641 | – | 0.0428 | 0.0549 | 0.0703 | 0.0624 | 0.0636 | 0.0646 | 0.0776 | 0.0517 | – | – | 0.0624 | 0.0638 | 0.0784 | 0.0588 | 0.0803 | 0.0601 |
| F140W | 0.143 | 0.103 | – | – | – | 0.115 | – | 0.107 | – | – | – | – | – | 0.0928 | 0.112 | – | – | – | – |
| K142W | 0.0741 | 0.0895 | 0.0605 | 0.0775 | – | – | – | 0.0657 | 0.0734 | – | – | 0.088 | – | – | – | 0.0888 | – | – | – |
| H143G | 0.119 | – | – | 0.103 | 0.0719 | 0.104 | 0.0748 | 0.131 | – | 0.081 | 0.0806 | – | 0.101 | – | 0.0869 | 0.113 | – | 0.136 | 0.0805 |
| I145V | 0.143 | – | 0.0832 | – | – | – | – | – | 0.124 | – | – | – | 0.146 | 0.132 | – | 0.115 | 0.121 | 0.152 | 0.171 |
| Q146D | 0.106 | 0.129 | – | 0.0873 | 0.109 | 0.0899 | 0.101 | 0.103 | – | – | 0.166 | 0.088 | 0.094 | – | – | – | – | – | – |
| Q146P | 0.113 | 0.104 | 0.0828 | 0.087 | 0.118 | 0.117 | 0.0814 | 0.0891 | 0.108 | 0.12 | – | 0.105 | – | – | 0.112 | 0.126 | 0.123 | – | – |
| Q146V | 0.113 | 0.103 | 0.101 | 0.08 | 0.0938 | 0.125 | 0.107 | 0.107 | – | – | 0.102 | 0.0946 | – | – | 0.125 | – | – | – | 0.12 |
| T147F | 0.0596 | – | 0.046 | 0.0477 | 0.0147 | 0.0589 | 0.0736 | 0.0558 | 0.0578 | – | – | 0.0558 | – | – | 0.0638 | – | 0.07 | 0.0745 | 0.0481 |
| T147M | 0.0777 | 0.0847 | – | 0.0684 | 0.067 | 0.108 | 0.0878 | 0.0882 | 0.0818 | – | – | – | – | – | – | – | – | 0.12 | 0.105 |
| T147R | 0.0694 | 0.0657 | 0.0541 | 0.057 | 0.0739 | 0.0733 | 0.0576 | 0.0606 | 0.0513 | – | 0.0646 | 0.0616 | – | 0.0711 | – | – | 0.0651 | – | – |
| K148C | 0.111 | 0.0879 | 0.124 | 0.0895 | 0.086 | 0.107 | 0.0963 | 0.106 | 0.0954 | 0.092 | 0.0938 | 0.102 | 0.14 | 0.0927 | 0.0993 | 0.133 | – | – | 0.0913 |
